Screen size: about 150,000 compounds; about 6,500 (4.3%) were called active. Inconclusive means that the source gave no clear call. Such entries were picked first, then a sample of the others. Calls follow the shape of the dose curve; as a rule, active = well fitted inhibition curve with a large enough effect (not every such curve was filed as active); inconclusive = small, poorly fitted or top-dose-only effect, or another doubt; inactive = no such curve, though single readings can be large or run the other way. Potencies beside an inconclusive call are fits to weak or partial responses and may not hold up.
Each compound was assayed against 15-hydroxyprostaglandin dehydrogenase [NAD(+)] (Homo sapiens) (UniProt P15428) (assay: qHTS Assay for Inhibitors of HPGD (15-Hydroxyprostaglandin Dehydrogenase)). Conditions: purified HPGD, NADH fluorescence kinetic, PGE2 substrate; activity change, negative = inhibition: hits give low values.
Outline: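 NADH formation kinetics: reaction with 30 uM PGE2 and 1 mM NAD+ (final), 20 nM enzyme, Tris-HCl pH 8 with Tween 20, after 15 min compound preincubation at room temperature. Fluorescence change, last versus first of five reads.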
% is scaled to controls: 0 for no effect and ±100 for the full control effect; potency is read from the fitted curve at half-maximal effect; tags tell the direction and shape of the fitted curve.

Chain of UniProt P15428 (P15428 whole entry, looked up): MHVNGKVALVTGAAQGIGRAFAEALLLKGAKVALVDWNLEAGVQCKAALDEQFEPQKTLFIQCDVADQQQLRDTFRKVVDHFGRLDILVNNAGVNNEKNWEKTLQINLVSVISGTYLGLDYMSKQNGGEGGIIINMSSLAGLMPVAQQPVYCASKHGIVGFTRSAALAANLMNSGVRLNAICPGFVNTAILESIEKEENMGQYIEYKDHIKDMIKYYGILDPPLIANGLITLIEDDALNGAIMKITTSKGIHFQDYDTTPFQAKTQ

Potency, active:
N#CC1=C2SCN(c3ccc(F)cc3)CN2C(=O)CC1c1cccc(F)c1 (stereo not drawn) 5.62 µM
Cc1nn2c(COc3ccc(NC(=O)c4ccccc4Cl)cc3)nnc2c2ccccc12 14.1 µM
CN1CSC2=C(C#N)C(c3cccc(OCc4ccccc4)c3)CC(=O)N2C1 (stereo not drawn) 14.1 µM
N#CC1=C(N)OC2=C(C(=O)CC(c3ccccc3)C2)C1c1ccc2c(c1)OCO2 (stereo not drawn) 28.2 µM
O=C1CCCC(=O)C1=Cc1c[nH]c2ccccc12 22.4 µM
Cc1ccc(C(=O)CSc2cnc3ccccc3n2)cc1C 22.4 µM
Cc1c(C(=O)N2CCCCCC2)nnn1-c1nonc1N 31.6 µM
COc1ccc(NS(=O)(=O)c2ccc3c(c2)n(C)c(=O)n3C)cc1 15.8 µM
COc1ccc2c(c1OC)C(=O)N1c3ccccc3N=C(c3ccc([N+](=O)[O-])cc3)CC21 (stereo not drawn) 35.5 µM
O=C(CSc1nc2ccccc2c(=O)[nH]1)c1cccs1 12.6 µM
CC(Sc1nc(-c2ccccc2)cc(C(F)(F)F)n1)C(=O)N1CCCCC1 (stereo not drawn) 7.08 µM
CN1CCN(C(=O)c2cc3nc(-c4ccc(F)cc4)cc(C(F)(F)F)n3n2)CC1 11.2 µM
COC(=O)c1cc(C(=O)OC)cc(N2C(=O)CC(NNC(=O)c3ccc(C)cc3)C2=O)c1 (stereo not drawn) 14.1 µM

Potency, inconclusive:
COc1cc(/C=C/c2noc(-c3ccccc3O)n2)cc(OC)c1OC 31.6 µM [inhibitor, partial curve]
Cc1cccn2c(=O)c3cc(C#N)c(=N)n(CCN4CCOCC4)c3nc12 22.4 µM [inhibitor, partial curve]
Cc1ccc(CSc2nc3ncccc3[nH]2)cc1 7.08 µM [inhibitor, partial curve]
C=CCNC(=O)c1ccccc1NC(=O)c1ccc(Cl)c(S(=O)(=O)Nc2cc(C)ccc2C)c1 35.5 µM [inhibitor, partial curve]
COc1ccc(OC)c(/C=C/C(=O)N(C)CC(=O)Nc2cc(C)ccc2C)c1 35.5 µM [inhibitor, partial curve]
CC(C)NC(=S)N/N=C1\CCCCC1C1CCCCC1 (stereo not drawn) 22.4 µM [inhibitor, partial curve, poor fit]
CCOC(=O)c1[nH]c2cc(OC)c(OC)cc2c1NC(=O)CN1CCN(c2ccc(OC)cc2)C(C)C1 (stereo not drawn) 15.8 µM [inhibitor, partial curve]
CN1C(=O)c2c(sc3c2CC(C)(C)SC3)N2CCN=C12 28.2 µM [inhibitor, partial curve]
CCc1nnc(NS(=O)(=O)c2ccc(NC(=S)NC(=O)c3ccc(OC)c(OC)c3)cc2)s1 31.6 µM [inhibitor, partial curve]
CN1CCN(CCCCOc2ccc(F)cc2)CC1 39.8 µM [inhibitor, single point]
COCCNC(=O)COc1ccc(Br)cc1Cl 20 µM [inhibitor, partial curve]
COc1ccc(S(=O)NC2CCCCC2)c(OC)c1C (stereo not drawn) 17.8 µM [inhibitor, partial curve]
CSc1ccc(C(=O)c2[nH]c(=O)[nH]c2C)cc1 11.2 µM [inhibitor, partial curve]
Cc1ccc2[nH]c3c(=O)n(CCN4CCNCC4)cnc3c2c1 28.2 µM [inhibitor, partial curve]
Cc1cc(Nc2ccccc2Cl)n2nnnc2n1 22.4 µM [inhibitor, partial curve]
COc1ccc(CCn2c(N)c(C#N)c3nc4ccccc4nc32)cc1OC 28.2 µM [inhibitor, partial curve]
COc1cccc(NC(=O)CN(C)C(=O)/C=C/c2cc(OC)ccc2OC)c1 35.5 µM [inhibitor, partial curve]
C=CCSc1nnc(-c2sc(-c3ccccc3)nc2C)n1C 22.4 µM [inhibitor, partial curve]
CCOCCCNC(=O)CN1C(=O)/C(=C/c2ccccc2)Sc2ccccc21 35.5 µM [inhibitor, single point]
CCOC(=O)c1c(-c2ccc(C)o2)csc1NC(=O)COC(=O)c1ccc(NC(N)=O)cc1 22.4 µM [inhibitor, partial curve, poor fit]
Cn1c(-c2ccc(C=O)s2)nc2ccccc21 28.2 µM [inhibitor, partial curve]
CCOCCCn1c(=N)c(C(=O)NCc2ccc3c(c2)OCO3)cc2c(=O)n3ccccc3nc21 28.2 µM [inhibitor, partial curve]
Cc1ccc(/C=C/C(O)=C2/C(=O)N(C)C3(C)CC2c2ccccc2O3)cc1 (stereo not drawn) 12.6 µM [inhibitor, partial curve]
CCCn1c(=O)c2c(C(=O)OCC)cc(-c3ccco3)nc2n(CCC)c1=O 11.2 µM [inhibitor, partial curve]
CCn1nc(NC(=O)c2ccccn2)c2cc3cccc(C)c3nc21 31.6 µM [inhibitor, partial curve]
COc1cc(OC)cc(-c2nc3ccccc3s2)c1 39.8 µM [inhibitor, partial curve]
Cc1c(NC(=O)COC(=O)c2cc(-c3cccc4ccccc34)nc3ccccc23)c(=O)n(-c2ccccc2)n1C 39.8 µM [inhibitor, partial curve]
O=C(O)CSc1nnc(-c2cc3ccccc3o2)n1-c1ccccc1 28.2 µM [inhibitor, single point]
COc1ccc(C2c3sc(=O)[nH]c3SC3C4CCC(C4)C23)cc1 (stereo not drawn) 15.8 µM [inhibitor, partial curve, poor fit]
COCCn1c(-c2ccccc2)nc2c(c(=O)c3ccccc3n2C)c1=O 22.4 µM [inhibitor, partial curve]
O=C(NCc1cccs1)c1cnc2ccccn2c1=O 28.2 µM [inhibitor, partial curve]
Cn1cc(Cl)c(C(=O)Nc2nc3ccc(Cl)cc3s2)n1 31.6 µM [inhibitor, partial curve]
O=C(Oc1ccc2c(-c3ccccc3)cc(=O)oc2c1)c1cccs1 22.4 µM [inhibitor, single point]
COc1cccc(C(=O)NCCSc2ccc(C)cc2)c1 20 µM [inhibitor, partial curve, poor fit]
CN(CCC#N)S(=O)(=O)c1ccc2[nH]cc(C(=O)NCCc3ccccc3)c(=O)c2c1 22.4 µM [inhibitor, partial curve]

Activity change, negative = inhibition, inactive:
Cc1nc2ccccc2nc1-c1ccc(N=[N+]([O-])c2ccc(-c3nc4ccccc4nc3C)cc2)cc1 -1.02%
CCCCC(c1nnnn1C1CCCC1)N1CCN(C(=O)c2ccco2)CC1 (stereo not drawn) -6.39%
COc1ccc(/C=C2\SC(=O)N(CCC(=O)Nc3ccccc3)C2=O)cc1OC -21.1%
Cc1cc(C)c(S(=O)(=O)c2ccccc2C)c(SCC(C)C)n1 -14.6%
c1ccc(Cn2ncc3c(N4CCCCC4)ncnc32)cc1 -11.3%
CCOC(=O)c1sc(NC(=O)c2ccncc2)nc1C -16.2%
COc1ccc(C(=O)N(C)Cc2ccccc2)cc1Br -23.7%
CC1(C)CC(N(Cc2ccco2)C(=O)Cc2ccccc2)CCO1 (stereo not drawn) -6.54%
COC(=O)c1ccc(Nc2cc(C)nc3nc(C)nn23)cc1 -26.2%
O=C(O)/C=C/C(=O)Nc1ccc(Oc2ccc(NC(=O)/C=C/C(=O)O)cc2)cc1 -8.47%
Cc1cccc(C(=O)Nc2cccc(C(=O)N3CCOCC3)c2)c1 -11.2%
CN(NC(=O)c1cccc(Cl)c1)c1nc(-c2ccccc2)nnc1C(F)(F)F -7.17%
CC(C)C(C(=O)OCC(=O)c1ccc2c(c1)NC(=O)CO2)N1C(=O)c2ccccc2C1=O (stereo not drawn) -11.9%
Nc1c(CO)nnn1-c1ccccc1 -7.67%
COc1ccccc1N1CCN(Cc2ccc(Br)o2)CC1 -8.84%
COc1ccc(C(=O)Nc2cc(OC)cc(OC)c2)cc1 -4.11%
C1CCC(n2nnnc2CN2CCCC2)CC1 -5.17%
CCOC(=O)c1ccc2c(c1)C(=O)N(C1CCCCC1)C2=O -7.89%
Cc1oc(-c2cccs2)nc1CS(=O)CC(=O)NCCCOC(C)C (stereo not drawn) -6.04%
N#CCCSc1nc(N2CCOCC2)c2c(c1C#N)CCCC2 -3.91%
CC(C)CC(=O)N1CC(C)N(C(=O)CC(C)C)CC1C (stereo not drawn) 0.187%
Cc1[nH]n(-c2ccccc2)c(=O)c1/C=N/N1C(=O)c2ccc3c4c(ccc(c24)C1=O)CC3 -17%
COCCn1c(SCC(=O)Nc2cc(C)nn2-c2ccccc2)nnc1-c1ccncc1 -0.547%
CCCCC1=CC2=C(OC(C)=O)C(=O)C(C)(OC(=O)CCC(=O)OC)C(=O)C2=CO1 (stereo not drawn) -8.56%
CCOc1ccc(CCNC(=O)C2=C(C)C(=O)OC23CCC(C)CC3)cc1 (stereo not drawn) -14.1%

— PubChem BioAssay AID894 (National Center for Advancing Translational Sciences (NCATS), 2007)
